Source: PubChem BioAssay (NCI)
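Test compounds were applied to cells in 96-well plates for 48 hours at 5 doses. GI50 = concentration required for 50% inhibition of growth.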 The source holds more than one record for some entries. Only these are listed. An entry can have further records. The tests behind the records often covered other concentration ranges, not given here; some values may only mark the edge of a range.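 TGI is the concentration that stops growth completely.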

Experiments:
Assay in all cases: growth of human tumour cells (NCI), 48 h
A549 NSCLC = tested on: A549 NSCLC
HOP-62 NSCLC = tested on: HOP-62 NSCLC
NCI-H522 lung = tested on: NCI-H522 lung
CCRF-CEM leukemia = tested on: CCRF-CEM leukemia
MOLT-4 leukemia = tested on: MOLT-4 leukemia
K-562 leukemia = tested on: K-562 leukemia
RPMI-8226 leukemia = tested on: RPMI-8226 leukemia
HL-60(TB) leukemia = tested on: HL-60(TB) leukemia

Compound	TGI (A549 NSCLC)	TGI (HOP-62 NSCLC)	TGI (NCI-H522 lung)	GI50 (CCRF-CEM leukemia)	TGI (CCRF-CEM leukemia)	GI50 (MOLT-4 leukemia)	TGI (MOLT-4 leukemia)	TGI (K-562 leukemia)	GI50 (RPMI-8226 leukemia)	GI50 (HL-60(TB) leukemia)	TGI (HL-60(TB) leukemia)
CC(=O)NC1C(OCc2ccccc2)OC(CO)C(O)C1OC(C)C(=O)NC(C)C(=O)N[C@@H](CCC(=O)OCCCNC1c2ccccc2Nc2cccc([N+](=O)[O-])c21)C(N)=O (stereo partly specified)	335 nM and 12.4 nM	117 nM and 10.5 nM	–	–	–	–	–	–	–	–	–
S=C(S)N1CCCCC1	–	–	1.14 µM and 93.3 µM	223 nM and 46.7 µM	715 nM and > 406 µM	34.5 nM and 114 µM	20.3 µM and > 406 µM	8.17 µM and > 406 µM	58.3 nM and > 406 µM	6.86 µM and > 406 µM	854 nM, 33.7 µM, > 406 µM
